In the supplement of paper PMC11417369:
Some of the results follow.

Each sequence was assayed on PfHDP1 homeodomain (GST-tagged) (assay: gcPBM binding intensity (ln(normalized median fluorescence intensity)); higher = stronger DNA binding).
Method in brief: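 GST-tagged P. falciparum DNA-binding domains, expressed in E. coli (about 25 μg on average), were applied for 1 h to an Agilent 4 × 180k array of primer-extended double-stranded 36-bp intergenic genomic probes plus negative controls. The binding buffer was 1× PBS with 1% milk, 0.2 mg/ml BSA, 0.5% salmon testes DNA and 0.03% Triton X-100. Bound protein was detected with Alexa488 anti-GST antibody and scanned at 488 nm. Binding intensity is the highest Masliner-normalised natural-log median intensity across replicate spots of either probe orientation.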

Sequence | gcPBM binding intensity (ln)
GATAAAACGTTATGCACACGTACGTGAGTATTTATA [CACACA_site1570] | 10.4
AACAAAACTTTGGATACATGCAAAATTTTTAAATGA [TGCATGCA_site249] | 6.29
AATGATAAATAAAAAGCATGCAACAAATAAAAATAA [TGCATGCA_site453] | 7.58
TTATTCCTTTTCCTTTTTTTTTTTTAACCAAAAAAA [CACACA_negctrl_site309] | 6.25
ATACATAAATTTTGTACACACAAAAAAAAAAAAGCT [CACACA_site1351] | 6.46
TTTATATATATAAATATGTAGATAACAATATTCTGA [TGCATGCA_negctrl_site554] | 6.13
AAAATATACATATATGCATGCATATAAATAAAAAAA [TGCATGCA_site812] | 6.77
AATGTTTATTTTGTTTGTACATAAAATGAATAAAAT [XGTACX_site1456] | 6.24
TATATATATTTATGCACACAAAATATATTATAGAAT [CACACA_site3740] | 9.64
GTTATATATTTTTATGCATGCATTTTTAAATATATA [TGCATGCA_site175] | 6.86
ATTACAATATATACGTGTACATATTACCACCGCTAC [XGTACX_site2308] | 6.67
TGTAAAAAATTTAACACACACATATATATATATATA [CACACA_site2585] | 9.33
ATAAAAATATTACGCACACACAAACTTATTCATTAT [CACACA_site1969] | 7.49
TTGTTCAAACAAAAAATAAAATAATTGAAAATAAAA [CACACA_negctrl_site812] | 6.43
GTAACTTTATTATACTGTACTATTATATAAGCACAC [XGTACX_site2859] | 6.77
TTACAAAATAAGAGGCACAAACACAAAAAAAAATAA [CACACA_negctrl_site574] | 6.94
TAGAATAAGATAGATATACACACCATTATAAATATA [CACACA_site2500] | 6.59
AAAAAAAAAAGACACACACACAAAAAAAGATATATA [CACACA_site6645] | 6.58
AAAAAAAATTATTATGAACACACATTTATTATATTC [CACACA_site8443] | 5.92
ATTCTACACAGACATACACACATATATATATATATA [CACACA_site5826] | 9.34
TAATATGATCTTAATAGTACTTTATTAATAATAACC [XGTACX_site1953] | 6.25
TATATATGTTTATGTAGTACTATATATCCCTTTCTT [XGTACX_site7049] | 6.7

Sequence | gcPBM binding intensity (ln)
TATTGATTATTTGAATGTACTTATTATATTAAATAT [XGTACX_site1304] | 6.04
GCACACATATAATAATGTACATATATATATTTAAAA [XGTACX_site4561] | 6.87
AATAAAAATATTTTTACATGCAAATGTTATATATTT [TGCATGCA_site1056] | 6.72
ACACGCACATATATATAAATATATATATATATAAAT [CACACA_negctrl_site1781] | 7.19
AGTTGTTACGAACATACACACGAACATAGACACGGA [CACACA_site8102] | 6.99
ATGAGTGTAATAATATGTACATAACCTACATAATTT [XGTACX_site852] | 6.76
AAAAAAAAATATATAAACACACATATTTATATACAC [GTGCAC_negctrl_site545] | 6.23
TTATTTAAATAATATGTACACACATTTAAAAAATTA [CACACA_site8912] | 6.39
AAAAATAAAATGGACACACACGTTCAAATTTAGATT [CACACA_site5186] | 6.5
GGATGCACACAAAAGGGTACATAAGAAAAAAACAGG [XGTACX_site8570] | 9.42
CACGCACAGATATATACACACTTTTATTTAAATAAC [CACACA_site6852] | 7.44
AAATATATATATAGTTGTACATATATCGTATATATT [XGTACX_site7867] | 6.44
TTCACTAATAAATACGCACACATATACAGATATATA [CACACA_site4887] | 7.5
TGGGTAAACAAACACACACACATATATATATATATA [CACACA_site1992] | 9.3
CCCCCCCACAGACACACACACATACATACCACATAT [CACACA_site2306] | 8.2
ATATATATATAATAAACACACAAATAGATATAACAT [CACACA_site3715] | 8.36
GGACAAGTTTTTTACATAAATAAAAAAAATAAAAAA [XGTACX_negctrl_site125] | 6.19
TTAAAGCTGACATATACACACATACATAAATTCATA [CACACA_site5377] | 6.75
TATACATATATTATATGTACATATATATATAATATA [XGTACX_site2942] | 6.4
AAAAAAAATACATACACACACACACCCACATATATA [CACACA_site3561] | 6.9
AATATAAAAAAAGAGGAGGGATGGTATACTTGTGGT [CACACA_negctrl_site986] | 6.96
ATAGAAGGCAACTTGGTGCACAAAAAAAAAAATAAT | 10.5

Sequence | gcPBM binding intensity (ln)
TTTTTTAAAAGATATATAATATGTATGAATATTCAA [XGTACX_negctrl_site380] | 6.19
AATGTGAAAAAAAAAAGTACAGACCTAATCAAAAAA [XGTACX_site2486] | 6.47
ATACTTATGATAAATACACACTTGAAATTAAGGATT [CACACA_site4772] | 6.74
CGAACAAACAAATAAACACACAAAAAAAAATATATA [CACACA_site1825] | 6.63
AATATATTTCATTTTTGTACACACAACGTTGGAGGG [XGTACX_site6461] | 7.05
CAACATATGCATATGTGTACATATTTTATTTTCAAC [XGTACX_site2237] | 6.83
ATATACTCATTAATAACACACAATATGATAACAAAT [CACACA_site5913] | 6.91
ACATACATATGTAAATGTACAAAATATCCATAGATT [XGTACX_site2782] | 6.63
TTTTATTTCATTTGTTGTACTTTCAAAATATTATTA [XGTACX_site2192] | 6.83
AAGAATAAAGAATGGTGTACATGCATATAAAATATT [XGTACX_site5707] | 6.72
AGTGTTTTTTATAAAGTGCAATATAAAAACAAAATG | 9.33
ATGTTATATATGTATTGTACGTATTTTGTATATTAT [XGTACX_site6607] | 6.94
AATTTTTTTTTATTGTGTACTTATTTTTTTATATTT [XGTACX_site917] | 6.74
GATAAATCATATATAACACACATATGAATATTACAA [CACACA_site1321] | 6.31
AAAAGAAACTTATTTACGCACACTTTATTGCATGTT [CACACA_site3887] | 6.97
TAAGATATATTTTTTTGTACACATAATAAAATAATA [XGTACX_site8938] | 6.32
GTAATTTTGAGATGATGTACATATTTTTTCCTTGTC [XGTACX_site4103] | 6.39
TATATATTATCAAGTGGACACACGAAAAAAAGGAAA [CACACA_site3741] | 6.95
TAAAGATTGTTCAGTGCATGTTGGCCTGTAAATGGA [TGCATGCA_site315] | 7.37
TTTTTCATATTATACTTTTATATACATATATAAAAA [XGTACX_negctrl_site281] | 6.49
ATAATGTAGAACTAGAGTACATAAAAAAATAAACAT [XGTACX_site5205] | 7.17
GCTACACAATTTTTTAGTACACACATATAAATATAT [XGTACX_site3131] | 7.27

Sequence | gcPBM binding intensity (ln)
TTTTTTTTTTTTTTTTTTTGTCTTATATATTACGGA [CACACA_negctrl_site322] | 6.2
TATATGCACTTAATATGTACACAAAAAAAAAAAAAA [XGTACX_site6199] | 9.79
CTTATATTAAAAACTTGTACACATGTTAAGAATTTT [XGTACX_site5857] | 6.24
TTTATATATTATACATGTACATATTTATTTATATAA [XGTACX_site3474] | 6.51
AAAAAAAAAAAATCATGTACTTATTTTTCATTGTTG [XGTACX_site1542] | 6.03
AAATAAGCATATACAAACATGCATACATATAAATAA [CACACA_negctrl_site246] | 6.43
AGTATAAAAATAAGCACACACACAAATATATATTTA [CACACA_site923] | 7.08
ATAATATAAATATTAACACACATCCTTTTATGTATA [CACACA_site6685] | 6.27
TTTCTTCTGCATTATGCACACTATAATTCGTTAAAA [CACACA_site5568] | 10.5
TTTTCTTTTACAAAGGGTACATAATTTAAATTCATA [XGTACX_site3876] | 6.32
ATTATATTCCAAGTTTGTACATATATATAAAAGTAT [XGTACX_site1631] | 6.63
ATACATATATATATTCTACACACTTATAATATAATA [CACACA_site8782] | 7.03
GTAAAAGTTAAAAAAACATGCAAAATTTAAAAAAAA [TGCATGCA_site637] | 6.62
ACTATATTTGCCCTTTTAATCAGAACAAAAAAAAAA [CACACA_negctrl_site1051] | 6.31
CTATAAATAACAGAAAGTACATATACATGGATATAT [XGTACX_site3317] | 6.46
TAAAAGAAATAAGGTGCACACATATACATATATATA [CACACA_site8037] | 9.46
TTTCTAAATGTTTATATATATATATATATATAAATA [GTGCAC_negctrl_site397] | 6.97
AATATATCAAAAATTGGATAGTTTCTTATAAAAAAT [CACACA_negctrl_site39] | 6
TTCTTTTCAGAAGGAAAGAATTATAACATATCATAA [XGTACX_negctrl_site548] | 6.13
ATATTATGTGAAGAACGTACAAATTTTTACACTATA [XGTACX_site1485] | 6.79
TATTTTGCTCATCCATGTACACATAGATATATTTTA [XGTACX_site8244] | 9.23
TTACAAAACACTTATACACACATATAAATATAAATA [CACACA_site7307] | 6.78
